Hit rate of the full screen: of about 360,000 compounds, about 16,000 (4.4%) were called active. Inconclusive means that the source gave no clear call. Such entries were picked first, then a sample of the others. Calls follow the shape of the dose curve; as a rule, active = well fitted inhibition curve with a large enough effect; inconclusive = small, poorly fitted or top-dose-only effect; inactive = no such curve, though single readings can be large or run the other way. Potencies beside an inconclusive call are fits to weak or partial responses and may not hold up.
What follows are molecules tested against Bromodomain adjacent to zinc finger domain protein 2B (Homo sapiens) (UniProt Q9UIF8) (assay: qHTS Assay for Inhibitors of BAZ2B). Conditions: AlphaScreen BAZ2B-H3K14Ac peptide displacement; series mostly up to 114 µM.
Chain of UniProt Q9UIF8 (Q9UIF8 whole entry, looked up, the tested form may be a part): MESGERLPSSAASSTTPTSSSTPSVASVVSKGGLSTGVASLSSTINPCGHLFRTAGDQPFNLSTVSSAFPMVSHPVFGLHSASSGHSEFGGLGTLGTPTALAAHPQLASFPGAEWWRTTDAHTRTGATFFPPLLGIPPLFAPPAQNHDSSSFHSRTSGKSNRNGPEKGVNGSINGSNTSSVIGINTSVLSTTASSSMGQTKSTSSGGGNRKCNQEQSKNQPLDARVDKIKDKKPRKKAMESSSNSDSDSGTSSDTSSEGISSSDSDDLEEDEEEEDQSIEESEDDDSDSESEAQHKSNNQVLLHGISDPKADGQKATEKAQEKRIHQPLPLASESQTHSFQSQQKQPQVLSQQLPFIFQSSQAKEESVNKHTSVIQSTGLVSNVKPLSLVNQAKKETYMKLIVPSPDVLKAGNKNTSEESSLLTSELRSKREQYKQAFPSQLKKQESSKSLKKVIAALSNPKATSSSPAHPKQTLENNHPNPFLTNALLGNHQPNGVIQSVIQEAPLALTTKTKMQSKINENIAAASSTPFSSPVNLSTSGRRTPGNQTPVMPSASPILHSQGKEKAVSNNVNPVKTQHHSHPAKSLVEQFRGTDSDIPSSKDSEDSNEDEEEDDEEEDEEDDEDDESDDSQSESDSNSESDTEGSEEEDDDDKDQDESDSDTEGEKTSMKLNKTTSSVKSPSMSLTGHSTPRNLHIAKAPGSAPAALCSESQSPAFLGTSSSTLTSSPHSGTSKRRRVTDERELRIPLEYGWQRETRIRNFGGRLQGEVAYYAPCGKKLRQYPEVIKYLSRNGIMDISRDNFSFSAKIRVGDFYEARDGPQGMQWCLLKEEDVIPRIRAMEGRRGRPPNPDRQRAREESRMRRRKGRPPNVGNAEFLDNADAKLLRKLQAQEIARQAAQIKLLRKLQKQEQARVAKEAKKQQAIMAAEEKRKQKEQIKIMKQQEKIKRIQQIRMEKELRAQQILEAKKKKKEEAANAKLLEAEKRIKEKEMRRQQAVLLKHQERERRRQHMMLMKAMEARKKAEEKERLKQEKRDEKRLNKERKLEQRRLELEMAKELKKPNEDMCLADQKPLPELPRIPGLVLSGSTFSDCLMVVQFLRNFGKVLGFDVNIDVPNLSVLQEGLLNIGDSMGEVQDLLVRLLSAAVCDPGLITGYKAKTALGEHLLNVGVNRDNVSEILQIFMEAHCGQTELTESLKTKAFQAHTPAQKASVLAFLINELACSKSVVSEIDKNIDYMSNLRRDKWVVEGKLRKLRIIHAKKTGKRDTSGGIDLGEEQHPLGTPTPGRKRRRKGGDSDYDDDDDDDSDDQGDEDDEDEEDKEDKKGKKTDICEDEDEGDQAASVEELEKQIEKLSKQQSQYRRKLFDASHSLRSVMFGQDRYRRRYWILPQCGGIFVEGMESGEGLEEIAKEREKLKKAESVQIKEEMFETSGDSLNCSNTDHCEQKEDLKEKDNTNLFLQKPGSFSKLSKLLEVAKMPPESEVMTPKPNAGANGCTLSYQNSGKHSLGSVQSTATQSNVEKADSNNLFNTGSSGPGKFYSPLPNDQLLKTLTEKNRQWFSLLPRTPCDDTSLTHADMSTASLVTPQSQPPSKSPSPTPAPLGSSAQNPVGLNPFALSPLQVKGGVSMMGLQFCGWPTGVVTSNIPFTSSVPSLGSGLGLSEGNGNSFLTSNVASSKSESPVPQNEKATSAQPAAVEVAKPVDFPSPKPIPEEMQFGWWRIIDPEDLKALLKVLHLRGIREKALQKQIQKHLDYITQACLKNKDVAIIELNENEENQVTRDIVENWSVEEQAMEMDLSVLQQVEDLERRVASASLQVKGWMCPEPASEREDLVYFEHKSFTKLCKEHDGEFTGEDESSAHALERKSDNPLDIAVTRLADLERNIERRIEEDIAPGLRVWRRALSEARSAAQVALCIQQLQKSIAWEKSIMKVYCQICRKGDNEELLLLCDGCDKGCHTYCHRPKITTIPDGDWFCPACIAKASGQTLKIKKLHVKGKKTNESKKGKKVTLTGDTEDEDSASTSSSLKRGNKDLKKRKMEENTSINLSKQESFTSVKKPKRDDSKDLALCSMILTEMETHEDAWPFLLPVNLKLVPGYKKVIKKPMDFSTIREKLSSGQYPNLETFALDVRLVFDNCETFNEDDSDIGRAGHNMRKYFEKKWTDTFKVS
Outline: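 Multi-concentration screen (max 110 uM) measuring displacement of acetylated histone H3 peptide from BAZ2B by AlphaScreen, using 50 nM protein, 50 nM peptide and 10 ug/mL streptavidin donor plus Ni-chelate acceptor beads.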
In the case of COc1ccc(CN2CCC(N3CC(C)OC(C)C3)CC2)c(OC)c1 (stereo not drawn), the Potency is reported as active: 31.6 µM.
With COc1ccc(-c2cc(C3CCNCC3)[nH]n2)cc1 the Potency was inconclusive: 8.91 µM [inhibitor, full curve, poor fit].
In the case of N#C/C(=C/c1ccc(Sc2nc3ccccc3[nH]2)o1)c1cccc(F)c1, the Potency is reported as “inactive”.
CCOC(=O)c1cccc(N2C(=O)Nc3ccccc3N2O)c1 was tested, and the Potency was inconclusive: 79.4 µM [inhibitor, single point].
In the case of O=C(O)CCCN1C(=O)C2C3CC(C2C1=O)C1C(c2ccccc2)c2sc(=O)n(-c4ccccc4)c2SC31 (stereo not drawn), the Potency is reported as inconclusive: 79.4 µM [inhibitor, single point].
For CN1CC=C2C(C#N)=C(N)C(C#N)(C#N)C(CCc3ccccc3)C2C1 (stereo not drawn), the Potency was “inactive”.
COCCCn1c(=O)/c(=C\c2ccccc2OC(F)F)s/c1=C(/C#N)C(=O)NC(C)C was tested, and the Potency was “inactive”.
In the case of CCCCN(C(=O)c1cc2c(s1)CCC2)c1c(N)n(CCC)c(=O)[nH]c1=O, the Potency is reported as inconclusive: 79.4 µM [inhibitor, single point].
COC(=O)c1ccccc1N/C=C1\CCc2c(c(C)nn2-c2ccccn2)C1=O was tested, and the Potency was “inactive”.
In the case of CCOc1ccc(CNC(=O)C2Cc3cc(S(=O)(=O)N4CCCCCC4)ccc3N2C(C)=O)cc1 (stereo not drawn), the Potency is reported as inconclusive: 89.1 µM [inhibitor, single point].
In the case of CC1Cc2cc(/C(O)=C3/C(=O)C(=O)N(CCCN4CCOCC4)C3c3ccc(C(C)C)cc3)ccc2O1 (stereo not drawn), the Potency is reported as inconclusive: 89.1 µM [inhibitor, partial curve].
C/C(=N\N(Cc1ccccc1)c1ccccc1)c1ccncc1 was tested, and the Potency was inconclusive: 39.8 µM [inhibitor, partial curve].
In the case of CCC(C)(C)c1ccc(OCC(=O)Nc2ccncc2)cc1, the Potency is reported as inconclusive: 89.1 µM [inhibitor, single point].
Cc1cc(N=Nc2ccc(C)c(N=Nc3cc(C)c(N)cc3N)c2)c(N)cc1N was tested, and the Potency was active: 39.8 µM.
For CCn1c(CCCOc2ccc(Cl)cc2Cl)nnc1SCC(=O)Nc1cc(F)ccc1C, the Potency was “inactive”.
In the case of CN(C)S(=O)(=O)c1cc([N+](=O)[O-])ccc1N1CCCCCC1, the Potency is reported as inconclusive: 50.1 µM [inhibitor, partial curve].
In the case of CN(C)S(=O)(=O)c1cccc(-c2nn(-c3ccccc3)cc2/C=C2\SC(=S)NC2=O)c1, the Potency is reported as active: 31.6 µM.
In the case of Cc1nc(SCC(=O)c2cc3ccccc3oc2=O)c(C#N)c(C)c1C(=O)Nc1ccccc1, the Potency is reported as inconclusive: 89.1 µM [inhibitor, single point].
For CC(C(=O)Nc1ccc(C(=O)O)c(O)c1)N1C(=O)/C(=C\c2ccco2)SC1=S (stereo not drawn), the Potency was active: 28.2 µM.
Cc1[nH]c2ccc(C(=O)N3CCN(c4cccc(Cl)c4)CC3)cc2c1C was tested, and the Potency was inconclusive: 14.1 µM [inhibitor, full curve].
With COc1ccc(N2CCN(S(=O)(=O)CCNC(=O)COc3ccccc3C)CC2)cc1 the Potency was inconclusive: 50.1 µM [inhibitor, partial curve].
In the case of O=C(COC(=O)CNC(=O)c1ccccc1F)Nc1ncc(Cl)cc1Cl, the Potency is reported as inconclusive: 89.1 µM [inhibitor, single point].
For CCCN(CCC)CC(O)Cn1cc(/C=C/C(=O)c2ccc(OCC)cc2)c2ccccc21 (stereo not drawn), the Potency was inconclusive: 20 µM [inhibitor, full curve].
In the case of O=C(COc1ccc(Cl)cc1Cl)NC(=S)Nc1ccc(CN2CCOCC2)cc1, the Potency is reported as inconclusive: 44.7 µM [inhibitor, partial curve].
With C(=N/n1c2ccccc2c2ccccc21)/c1ccco1 the Potency was active: 8.91 µM.
CN1CCN(CCCCOc2ccc(Br)cc2)CC1 was tested, and the Potency was active: 56.2 µM.
COc1ccc(N2CCN(C(=O)CCS(=O)(=O)c3ccc(C)cc3)CC2)cc1 was tested, and the Potency was inconclusive: 39.8 µM [inhibitor, partial curve].
Cc1ccc(S(=O)(=O)CCC(=O)Nc2nnc(-c3cccs3)o2)cc1 was tested, and the Potency was inconclusive: 89.1 µM [inhibitor, single point].
COc1ccc(NC(=O)Cc2csc(COc3cccc(C)c3)n2)c(OC)c1 was tested, and the Potency was “inactive”.
With O=C(c1ccccc1)c1ccc(Sc2ccc([N+](=O)[O-])cc2)cc1 the Potency was inconclusive: 89.1 µM [inhibitor, single point].
With COc1ccc(Nc2nc(N)nc(CSc3nc4cc(OC)ccc4s3)n2)cc1 the Potency was inconclusive: 17.8 µM [inhibitor, full curve].
CCOc1cc2c(cc1OC)C(c1cccc([N+](=O)[O-])c1)NCC2 (stereo not drawn) was tested, and the Potency was inconclusive: 79.4 µM [inhibitor, single point].
For CCc1ccc(NC(=O)C(=O)NCC(c2cccnc2)N2CCOCC2)cc1 (stereo not drawn), the Potency was inconclusive: 89.1 µM [inhibitor, single point].
For COc1cccc2c1NC(C(=O)O)C1CC=CC21 (stereo not drawn), the Potency was active: 3.55 µM.
C[C@H](NC(=O)c1nc[nH]c1C(=O)N1CCc2ccccc2C1)C(=O)OCc1ccccc1 was tested, and the Potency was inconclusive: 79.4 µM [inhibitor, single point].
For CN1CCN(CCC(=O)Nc2ccc(F)c(F)c2)CC1, the Potency was inconclusive: 100 µM [inhibitor, single point].
O=C(c1ccc(F)cc1)C1CCN(CCn2c(=S)[nH]c3ccccc3c2=O)CC1 was tested, and the Potency was inconclusive: 89.1 µM [inhibitor, single point].
With COc1ccc2c(c1OC)C(=O)OC2Nc1nc(-c2cccc([N+](=O)[O-])c2)cs1 (stereo not drawn) the Potency was inconclusive: 79.4 µM [inhibitor, partial curve].
With O=C(O)c1cnn(-c2nc(-c3cccc(F)c3)cs2)c1C(F)(F)F the Potency was “inactive”.
With COc1ccc(-c2nc(CN3CCCCC3CCc3ccccn3)c(C)o2)cc1 (stereo not drawn) the Potency was inconclusive: 89.1 µM [inhibitor, single point].
In the case of O=C(Nc1cccc(Cl)c1)c1nc[nH]c1C(=O)N1CCN(c2ccccc2)CC1, the Potency is reported as inconclusive: 89.1 µM [inhibitor, single point].
O=C(/C(=C(\[O-])c1ccccc1)[n+]1ccc2ccccc2c1)c1ccc(Cl)cc1 was tested, and the Potency was “inactive”.
With C/C(=N\NC(=O)c1ccc(Cl)cc1)c1cccnc1 the Potency was “inactive”.

Reference: PubChem BioAssay AID504333 (National Center for Advancing Translational Sciences (NCATS), 2011)
Also: nearly all actives have a fitted effect of over 60% in size.
Potency is read from the fitted curve at half-maximal effect; tags tell the direction and shape of the fitted curve.
